Reference: the supplement of paper PMC12632987
The full ranking holds about 4,500 sequences; the median of “median log2 fold change of GCK-ALFA target abundance (FLAG IP / Myc IP barcode read proportion)” is about 0.078, and the lowest 2% start at about -0.6. Some of the results follow.

B1: GBRAP_128_3177 (protein)
chain: SVEEVKKKTEEMMDKIINSNPEEARKIAEELFEYLKTLSPEEREAAVEVILSRLPELTAEHLEIIADVARKHRDEFDPEGAELVADLEVEALNLAEELEE
B2: GBRAP_48_5840 (protein)
chain: EEEKREKAIEEILKIIKETAELLEEAKEEGLSEAAFEAILIDAAEEIKEVLEKYLGLGEEFEKLPLEEQLAIVEELVKTYKEEGEEATRKKIKEFIEKLE
B3: GBRAP_172_5008 (protein)
chain: KPTLIKKVIDSEDAEEAIAEIKEVLEEASKKKDAIVSIAVRVSDEEKAEEVEEEAEKLAKKYPNVVVEVAVTYDPSLNLEQIAEALLLEAIEEYEEKKKE
B4: GBRAP_128_3212 (protein)
chain: SVEEIKEKVRKLLEEIKEANKEEAKKIAEELAKLILNSSVEEAEAAKEVIEELAPELSEEDLEILMEAFEKEARKTSDERSLVLLEISIILGSEILEKEE
B5: GBRAP_128_3562 (protein)
chain: SVEEAVAQARELLEEIKASDEERAREAARRLAELLAAADPETREAIVAEILERLPELSVEHLEVLADVFREARPSADPATAEALAEIEVEALNEAEEKEE
B6: GBRAP_52_6243 (protein)
chain: MEEKMKKDAEELYKLVLEGKEEEAEKLAKEIAENYNEEELEIFIEKLAEIAKKARKEDIEKVWKLTEIVAKALEEAGKPEILVDLLESKVAAALYEVELK
B7: GBRAP_52_6106 (protein)
chain: ARARVRALVEEALALVRAGREEEARALLEAFARTANEEELELFAEALAELAREAAPEDLDAVWRLAEMAAEALEAAGWPDVLVDDLLARVAAALYERELK
B8: GBRAP_11_2811 (protein)
chain: MTPEKKEIIELLREAEELAERLLEEGVDDEELLERLRELARRVLELVKKHLDEADTRDAEALLETVEEAERDPERREEYLRNAAAGARTLRANVEEEAEE
B9: GBRAP_11_2680 (protein)
chain: KLEALKQAAELARQAAELAQALLERGPADAELLAALQATVDQLAALVKANLDEAEKTLVAILRDELAAAQADPANAEAHLQNALAAARVLHYNLEEEIDE
B10: GBRAP_184_5073 (protein)
chain: EVKEATIAVTDVAEARAKVAALAAEVADFKGDLVVSLEMPEFDLEIARAVLDGLAAILAAGRARRVTLGIDAEATEEQVDEAVELADRLGVRLVLPLKEE
B11: GBRAP_39_5666 (protein)
chain: EEEEENEDVVSYLEAVAAGYLYETGISLEEAFEEAKEILKKYAEEHPELKELIEKLIELAEKKGDEAKLALIGIAVKIKEGTPIEEIKEDIEKVIKYFES
B12: GBRAP_11_2742 (protein)
chain: KKEKLEEIAKLAEEAAETVAKLIATGTDDAELRAKAAKLLAELAKLVKEHGDEFLKELAAAAAADFAEALADPANATAHLQNALAALRVLAGQVLLEIEE
B13: GBRAP_160_4760 (protein)
chain: KEKLKKLKEEVEEIFKEHLEMLKEVKPEEAPTVVRGAMGEVIMEVMSSEAASDELEEKIGEIADEAEEEAEANKDAPVEFHIKILEEARKKILSLIEEEI
B14: GBRAP_128_3511 (protein)
chain: SLEEAVARTRELMRAIAEADPETAAELTGELVDLINSVDDETAEAIAEEAIRLLPELSAEKLDVVADTLLERRPEVDEYKANLLADIAVEALNRREELDE
B15: GBRAP_52_5848 (protein)
chain: MEEEARKIAKELVELKLEGKEEELKKKIEEIVKTLSPEEVKLILKELARLAKEADEEEAEAILEVAELLADEAEKEGFDEDELSYLLAEVAAAVYKRLQK
B16: GBRAP_166_4981 (protein)
chain: MEEERVEEAKEYIDEKAEEAKEANYEEKLELLAEVAERIRELKEEGLSEEKLKELIRYTLEKFSKVGISLSDVEGALSIIAELDEEEVELLLEARKEVEA
B17: GBRAP_52_6285 (protein)
chain: SREEVEATAEEIVALVKEGKLEEALKLAREAVKRFSLEEVLELGELLVKRIATLKPEQIDLALEVVEELAEGLEEEFGAEEEADIIEARAAAAAYQALQA
B18: GBRAP_160_4320 (protein)
chain: SAELKKLIKEIEEITEEAIKLIEGESPEERKTIVKVALGEILLLAIENEEISDELEDKIAEIADAAEEELDANPDLSEEEVKELLRRATEEIIKLIKESE
B19: GBRAP_160_3977 (protein)
chain: MEEVEELKKEIQEIFDQAIADIEGQSFEERLAIIRVAWGEVILLVEENPLMSDETEDKVAAIGDATVAHLEANPGLSEAEIKALIQQAEKEIKEIIEKDA
B20: GBRAP_52_6336 (protein)
chain: SRERIEEAAERIAEAVAAGNLDEAVALTRELAERESREEVREALLRTAELIAERLPDREDLAWEAIFRLADVVEEVLGDEELADELEAHMARLLVERRQA
B21: GBRAP_83_6917 (protein)
chain: NETIVVAGPADHIEELVEIAIDLHKEEGKKVVVEIIATPEQFEKVLEGVKKLAESKIDVEVVVLLEGATPEQAEKLKEEMNKILKEAGSNMKIEVLLDDE
B22: GBRAP_160_4380 (protein)
chain: SEELKELKEEVEELKEEFREEAKDLSPEEVRTLAIGVLSEIAAMVWSNEAVSEETKDKIMEIIDEAIEEIRENEDASPEEIVEIVERAMEEIIKLIEEEE
B23: GBRAP_184_5086 (protein)
chain: TVLERTIEAETVEEAIEKLKAVMAEAGAAKADLTVLVDVKGLDVEGAIALIRVAGEQKAALGIPRVTLGFTEAFTEEEIDRLLAEADAAGVRVVLPIKEE
B24: GBRAP_160_4327 (protein)
chain: SESVEELIKEIEEEFEELKKEIEGLSIEQVKVLLRGTFGEILMLLSENPDVSDEALDRVEEVEDEALATLEENPDLTLEERKELIDEAREKVIEIIKELA
B25: GBRAP_11_2830 (protein)
chain: EKEKLKRLAELAEEVAEKTEKLIKSGNPTKEELEELLELVKKLLEETKKYGDEDEIKLAEIALENVEEAIKNPENQKFYLENALAALKTLAGLYLLKLEE
B26: GBRAP_166_4880 (protein)
chain: SEEELKEKLLKELKELIKEASKKDPIEQIDLYIKIAELVKEAREQGLSEEKLLEIIKEALEETHKAGLNPKQLLGVLIDIAELSEEEIDELEEHIEELEA
B27: GBRAP_184_5158 (protein)
chain: KVLERTIEADNLEELKKKLKEIKEEAAKTKADLIVVLNLKELTKEMLETALSTLGEIKKEGLAPSITLLIENEMNDEQIDFALKLADEAGVTLVVAIPDE
B28: GBRAP_125_3149 (protein)
chain: MKEKALELAEALAKAFGFSEEEIEELRKIALASDPEQTVVAVLLAGGFEEAAELAEKVLDKLTEEEFEELIKLAEEGKDKSKEEFEKELLELLKELLKKL
B29: GBRAP_11_2715 (protein)
chain: KKEKLEKLAKEAEKLAKKVKKLIEEGPKLEELKKLKKEVAKLAKEAKKEGVDPAIVKTLEIAAEDLKEAIENPETVLEHLKNAKAALEVAAGDLLLEAEE

These binders were tested against GABARAP, O95166 (assay: median log2 fold change of GCK-ALFA target abundance (FLAG IP / Myc IP barcode read proportion) (log2 ratio); each designed protein is fused to an ALFA-tag nanobody in HEK293 cells to bring the named protein to FLAG-tagged glucokinase (GCK); Myc marks an untargeted standard; higher = target protein stabilised (more abundant)). Settings: target protein: 3xFLAG-MCP-GCK-ALFA reporter; HEK293 landing pad (RPLP).
Summary of the method: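 Binders fused to an ALFA nanobody were recombined as a library into HEK293 landing-pad cells, which were induced with 2 μg mL^−1 doxycycline and then transfected to express a FLAG-tagged target and a Myc-tagged standard. After 48 h, circular RNA barcodes recovered by anti-FLAG and anti-Myc immunoprecipitation of lysates were reverse transcribed, amplified and sequenced. Each binder's target abundance is the median log2 ratio of FLAG to Myc barcode read proportions, from barcodes present at ≥10^−7 in both replicates, binders carrying ≥3 barcodes per replicate, a 10^−6 pseudocount and pooled replicates.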

GABARAP, O95166, sequence (O95166 whole entry, the tested form may be a part): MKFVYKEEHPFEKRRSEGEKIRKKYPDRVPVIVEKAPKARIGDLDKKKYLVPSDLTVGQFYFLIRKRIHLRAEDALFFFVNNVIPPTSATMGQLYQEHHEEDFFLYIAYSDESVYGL

Row | Binder | median log2 fold change
1 | B1 | 0.281
2 | B2 | -0.364
3 | B3 | 0.153
4 | B4 | -0.568
5 | B5 | 0.12
6 | B6 | 0.397
7 | B7 | -0.266
8 | B8 | 0.243
9 | B9 | 0.145
10 | B10 | 0.0205
11 | B11 | 0.0283
12 | B12 | 0.18
13 | B13 | -0.185
14 | B14 | -0.25
15 | B15 | 0.255
16 | B16 | 0.222
17 | B17 | -0.541
18 | B18 | -0.308
19 | B19 | 0.135
20 | B20 | -0.102
21 | B21 | -0.0295
22 | B22 | -0.00161
23 | B23 | 0.0902
24 | B24 | -0.111
25 | B25 | 0.309
26 | B26 | 0.225
27 | B27 | -0.0197
28 | B28 | 0.0285
29 | B29 | 0.234
